Reference: PMC10442856, “Site-Specific Glycation of Human Heat Shock Protein (Hsp27) Enhances Its Chaperone Activity” (ACS Chemical Biology, 2023)

Target: the molecule itself
Assay: SEC; Superdex-200 column; folded (refolded in 40 mM HEPES·KOH pH 7.5, ~1 mg/mL, 25 °C, 3 h) Hsp27 samples; calibrated with standard proteins

B1: semisynthetic wild type human heat shock protein 27 (Hsp27) 8a (natural protein)
chain: not shown
notes: human small heat shock protein Hsp27, […] ([…] synthetic, […] recombinant); Cys32 used for ligation turned back to Ala32 by desulfurization, native Cys137 turned to Ala at the same time; The His tag stood on the recombinant fusion construct 4 of segment […] and was removed by TEV protease before ligation; also called WT 8a; WT variant 8a; not shown: His tag, N-terminal, cleaved
Does B1 bind?
Result: binds
